Sequences with one replicate were seen in a single cluster, so their values are uncertain.

Our source for the switch fluorescence ratio values is the supplement of paper PMC10126150.
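Further: ATP exposure 15 min at 22 °C before imaging.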

For this series, the system named is ATP. Briefly: switch fluorescence ratio, 500 uM ATP over buffer (Cy3 cluster intensity, sum of 5 cycles each) (fold (ratio)); higher = stronger signal-on switching upon ATP binding; sequences stand for … in TCGTCGGCAGCGTCAGATGTGTATAAGAGACAGTTTTTTTTTTTTTTTTTTTTTTTTT…TC. Particulars: aptamer strand: ATP DNA aptamer (quencher-CACCTGGGGGAGTATTGCGGAGGAAGG + anchor), 100 nM annealed; ATP concentration: 500 uM; one replicate. The procedure, abridged: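 Clusters carrying Cy3-labelled switching strands on a modified Illumina MiSeq flow-cell were annealed to 100 nM quencher-labelled ATP aptamer and imaged in selection buffer. They were imaged again after 15 min with 500 uM ATP at 22 °C, over five buffer/ATP cycles with NaOH stripping and re-annealing in between. For each cluster, the fluorescence ratio is the summed Cy3 intensity of the target cycles divided by that of the buffer cycles, averaged per switch-domain sequence. Clusters outside 100-1000 RFU were left out.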
As to GAATATGTTG, the switch fluorescence ratio is 0.974. As for ACGCATCGGA, the figure is 1.01; as for GGTCATGGGT, 1; as for GTATACAAAT, 0.915. On to TGGGATGTGT, for which the switch fluorescence ratio was 0.991. Under AACAGGTGTC stands 1.5. As for CCTGATTACG, the figure is 1.08.

As to TCGCGCGGAT, the switch fluorescence ratio is 1.04. Under TATACAAAAA stands 1.02; under GAATGTAACT, 1.02. Under AGTATAGCCT stands 1.02; under GAGTCCGACT, 0.939; under AACTATTTGG, 1.01. Regarding GTTTTTGATT, the switch fluorescence ratio turned out to be 1.04.

Consider AAACCTGCA, for which the switch fluorescence ratio was found to be 2.7. As for CTGAGTTCCT, the figure is 1.03; as for AATGCACCTT, 1.14; as for GTGGGTCGT, 1.04.

For TTCAACTGTG, the switch fluorescence ratio was 1.01. Under CCACTTATCT stands 1.04. As for CTCATATGCG, the figure is 1.03.

Take AGACGAGGCG: the switch fluorescence ratio was 0.913. Under TGTTTTCGCG stands 1. As for TTTTAACAAA, the figure is 0.987; as for TAAGATTGCT, 0.955; as for CTCGCGTTAT, 1.25. Under TCGGGTGGCA stands 0.975; under TAGGGAGAAC, 1.05; under AAGGAGCGGT, 0.966.

For AGGAATGTCG, the switch fluorescence ratio was determined as 1.47. For the sequence TCGTGTTTTG, the switch fluorescence ratio amounted to 0.995. Regarding TAGCACGACT, the switch fluorescence ratio came to 0.999. ATCATGTTAC: the switch fluorescence ratio was found to be 1.06.

On to GGTTTTGGAC, for which the switch fluorescence ratio turned out to be 1.03. Under TCTAATAGAT stands 0.991. In the case of ACTCCCCATC, the switch fluorescence ratio came out at 2.57. As for GCGCAATAGG, the figure is 2.59; as for ATCACTTTGC, 1.07. Under GGTTCGTGTA stands 0.992; under TGCAGGTTGC, 0.942; under CTTCTGGCTA, 1.07.

As to CGTAGGAGTA, the switch fluorescence ratio was found to be 0.988. As for CCAGCCCTTA, the figure is 0.98.

In the case of AATCCCGACC, the switch fluorescence ratio was 1.29.

AGGGCACTCC: the switch fluorescence ratio was determined as 1.65. Under GGCAACAAGA stands 0.971; under AAGCTGGGGT, 1; under CATCGTGCAT, 1.32.

Regarding TATTAGCAAC, the switch fluorescence ratio was found to be 1.12. In the case of GGTCTGAGGA, the switch fluorescence ratio is 1.01. Take ATGATAGGTT: the switch fluorescence ratio is 1.02. Regarding CAGTGATGGG, the switch fluorescence ratio is 1.03. Under GTAGAAAGGG stands 1.11; under CGCGCCGCTG, 1.03. As for ATATGGAAAA, the figure is 1.02; as for TCGCCGGGGT, 0.976; as for TCGTGTGCGG, 0.902. As for CAAATCGGAT, the switch fluorescence ratio worked out at 0.962. ATGGGGCGGA: the switch fluorescence ratio is 0.981. As for CAGTTGCCGC, the figure is 0.971; as for GACTGCGTGC, 1.12; as for GTTTATCAGC, 1.03. As for AACTTTTAT, the figure is 1.02; as for ATCCCGGGAA, 0.96; as for AGCAATATAA, 1.65. As for AGTCCATCGT, the switch fluorescence ratio turned out to be 1.06.

As to TTCATCACTT, the switch fluorescence ratio stood at 0.99. Under TGAAAGGTAG stands 0.98. As for AAGTCAGCTA, the figure is 1.01; as for TGGGCACCTG, 1.04; as for GAGCCTTGCA, 1.01.

With AGTCGCGCTC, the switch fluorescence ratio worked out at 0.983.

For TGCGAAGAGG, the switch fluorescence ratio turned out to be 1. GCTTTTGATC: the switch fluorescence ratio turned out to be 0.969. Under GGCGCCATCG stands 0.957; under GTCAGTATAC, 1.5.

On to CCAGAACAGT, for which the switch fluorescence ratio was 1.03. Consider AGGAACGTCC, for which the switch fluorescence ratio came to 1.06. As for CTTTTTTAAC, the figure is 0.997; as for GCTGGCCGTC, 1.02; as for AGCTTTACTT, 1.01. Under GCGGACGGAG stands 1.01; under CTAAGAGGGG, 0.976. As for AGGAATTGTT, the figure is 0.937; as for AGTGCTTGA, 0.985. In the case of CCGGACCTTA, the switch fluorescence ratio stood at 1.09. As for TTGGATTTT, the figure is 0.966.

Turning to CCTTGCGTGG, the switch fluorescence ratio was 1.06. Consider GACGTCGAGC, for which the switch fluorescence ratio was 1.05.

On to AATAAGAACC, for which the switch fluorescence ratio stood at 1.06. Under CACAGATTCC stands 1.03. With TCGTGTTTCG, the switch fluorescence ratio is 1.08. Regarding TAAAACCGTG, the switch fluorescence ratio is 1.01. As for GTTGTTAAAA, the figure is 0.977; as for CGAATACTCG, 1.48; as for ACATAGTGAC, 1.04. Under TAGGGCCCGC stands 1.03; under CCGATAACAT, 1.18; under TTTCTCCTAA, 1.06. Under TTTTTGCGA stands 1.01; under AAGAGGGAA, 0.987; under TCCTACTGAG, 1.09. Regarding GCAGGTGCAG, the switch fluorescence ratio came out at 1.04. Consider TGCCTACGGT, for which the switch fluorescence ratio is 1.01.

As for GTGTTCCGAG, the switch fluorescence ratio worked out at 1.05.

Regarding CGTGATCCTC, the switch fluorescence ratio was 1.14.

Regarding GAGTTCGCCG, the switch fluorescence ratio was 0.972. As for GCAGCACCGG, the figure is 1.05; as for GCGGTTGGCT, 1.05; as for TGAGGCCCTC, 1.03. Under TCAAAGAGAT stands 1.03; under GTGGTCGACG, 1.04; under AGGGTTGATT, 1.03.

Take ACCGTCGCGT: the switch fluorescence ratio is 1.08.

With GCAAGCATGC, the switch fluorescence ratio came to 1.14.

As for CGTACTTGCT, the switch fluorescence ratio is 1.

As for AATCTTGG, the switch fluorescence ratio was 0.986.

TTCGCCAGTT: the switch fluorescence ratio was determined as 0.998. Take CTTAGCACAT: the switch fluorescence ratio turned out to be 1.26. As for TAGGGTTATA, the figure is 1.01.
